Results published in PubChem BioAssay AID1671188 (National Center for Advancing Translational Sciences (NCATS), 2021).
Among all 100,000 compounds or so, about 250 (0.25%) were called active. The inconclusive results got no clear call from the source; some entries with a clear call stand among them for comparison. The call rests on the fitted dose curve; in most records, active means well fitted inhibition curve with a large enough effect; inconclusive means small, poorly fitted or top-dose-only effect; inactive means flat fitted curve, though single readings scatter. No potency is given beside an inconclusive call; the fits are too rough.

These compounds were tested against Alanine aminotransferase 2 (Homo sapiens) (UniProt Q8TD30) (assay: Primary qHTS assay for inhibitors of Glutamate pyruvate transaminase 2 (GPT2)). Details: Recombinant GPT2, coupled pyruvate oxidase/HRP Amplex Red fluorescence; activity change, negative = inhibition: at 57.7 µM (top of the series) unless noted; series mostly up to 57.7 µM.
How it was run: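 Recombinant GPT2 (10ng/uL) with 250uM a-KG and 2mM L-alanine, 30 min at room temperature, in HEPES pH 7.5 buffer. Pyruvate detected by pyruvate oxidase/HRP/Amplex Red fluorescence after 30 min in the dark; AOA (50uM) as positive control.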
Further: nearly all actives have a fitted effect of over 60% in size.
On the % scale 0 is the no-effect control and ±100 the full control effect; potency means the concentration at half of the fitted maximal effect; tags describe the fitted curve by direction and shape.

UniProt Q8TD30, sequence (Q8TD30 whole entry, looked up): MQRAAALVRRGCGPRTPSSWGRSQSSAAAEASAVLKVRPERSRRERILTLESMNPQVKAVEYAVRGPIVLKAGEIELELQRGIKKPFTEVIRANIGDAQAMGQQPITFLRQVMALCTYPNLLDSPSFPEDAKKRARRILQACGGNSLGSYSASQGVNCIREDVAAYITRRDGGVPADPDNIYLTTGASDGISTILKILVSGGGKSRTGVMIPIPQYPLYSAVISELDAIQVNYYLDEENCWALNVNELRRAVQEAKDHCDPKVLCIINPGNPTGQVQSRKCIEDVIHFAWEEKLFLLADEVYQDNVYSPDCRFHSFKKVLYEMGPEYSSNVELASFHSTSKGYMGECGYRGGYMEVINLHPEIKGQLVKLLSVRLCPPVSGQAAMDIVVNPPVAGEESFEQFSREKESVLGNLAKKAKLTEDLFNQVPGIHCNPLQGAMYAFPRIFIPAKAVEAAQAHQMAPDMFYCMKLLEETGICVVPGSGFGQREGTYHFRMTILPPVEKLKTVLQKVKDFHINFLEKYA

Compound	Potency	outcome	activity change, negative = inhibition
CCN(C)Cc1cn(Cc2ccccc2)nc1-c1ccc2c(c1)OCO2	inconclusive [inhibitor, full curve, poor fit]		
C/C=C/C=C/C1=C2C(=O)C3(C)C4C(C(=O)CC(O)/C=C/C)=C(O1)C1(C)C2C2(C)OC1(O)C4(C)OC23O (stereo not given)	inconclusive [inhibitor, single point]		
COc1ccc(CCNC(=O)C2CCCN2C(=O)c2cccc(-c3ccccc3OC)c2)cc1 (stereo not given)	inconclusive [inhibitor, partial curve]		
CN(CCc1ccccc1)C(=O)CCC1CCN(c2cc(NC3CC3)ncn2)CC1	inconclusive [inhibitor, single point]		
CC(C)N1CC(C(=O)NCc2cccc(C(F)(F)F)c2)NC1=O (stereo not given)	inconclusive [inhibitor, single point]		
O=C(NC1CCCCC1)c1nn(CCOc2ccccc2)c2c1CNCC2	inconclusive [inhibitor, single point]		
COc1ccc(C(=O)N[C@@H]2CCC[C@@H]2C(=O)N2CCN(c3cc(C)ccc3C)CC2)cn1		inactive	
O=C(C1CCC1)N1CCC2(CC1)CC(N(Cc1ccc(F)cc1)C1CC1)CCO2 (stereo not given)	inconclusive [inhibitor, single point]		
COc1ccccc1-c1[nH]nc2ncc(C(=O)NCCN3CCOCC3)nc12	inconclusive [inhibitor, full curve, poor fit]		
COc1cccc(CN2CCC3(CC2)c2[nH]c4ccccc4c2CCN3C)c1		inactive	
COc1cc2c(c(O)c1OC/C=C(\C)CC/C=C(/C)CCC=C(C)C)CN(C(CCC(=O)O)C(=O)O)C2=O (stereo not given)	inconclusive [inhibitor, partial curve, poor fit]		
O=C1c2cccc(O)c2C(=O)c2c(O)cc(CO)cc21	inconclusive [inhibitor, full curve]		
Cc1ccc(NC(=O)CC2CCCN(c3cn[nH]c(=O)c3)C2)cc1C (stereo not given)	inconclusive [inhibitor, single point]		
O=C(c1cccnc1)N1CCC(N2C(=O)C3(CCCCC3)C2c2ccncc2)CC1 (stereo not given)		inactive	
O=C(C1CCCN1[S+](=O)([O-])c1ccccc1)N1CCC(N2CCCC2=O)CC1 (stereo not given)		inactive	
O=C([C@@H]1CCCN1c1nccc(Nc2ccccc2Cl)n1)N1CCOCC1	inconclusive [inhibitor, single point]		
O=C(NCc1ccccc1F)c1nc2sccn2c1-c1cccnc1	inconclusive [inhibitor, single point]		
COc1ccnc(CN2CCN(C)C3(CCC(=O)N(C)CC3)C2)c1OC (stereo not given)	inconclusive [inhibitor, partial curve, poor fit]		
CN(CC(O)CO)c1ncc(C(C)(C)C(=O)O)c(N2CCOCC2)n1 (stereo not given)	inconclusive [inhibitor, single point]		
OCc1cccc(-c2cc(C3=CCOCC3)c3cncn3c2)c1	inconclusive [inhibitor, single point]		
Cc1cccc(-c2nc3cnccn3c2NCCC(=O)NCc2ccc(F)c(Cl)c2)c1	inconclusive [inhibitor, single point]		
COCCCNC(=O)c1ccc2nccn2c1	inconclusive [inhibitor, single point]		

Compound	Potency	outcome	activity change, negative = inhibition
Cc1ccc(CN2CCCC3(CN[S+](=O)([O-])c4ccccc4N3)C2)cc1 (stereo not given)	inconclusive [inhibitor, single point]		
CCCCC(=O)NC1CCN(c2cnn(CC3CC3)c(=O)c2)CC1	inconclusive [inhibitor, partial curve, poor fit]		
Cc1cnc(C2CC2)n1CC1CCN(C(=O)CCCc2ccccc2)CC1	inconclusive [inhibitor, single point]		
COc1cccc(-c2cc(C3CCN(C(=O)Nc4ccccc4OC)CC3)[nH]n2)c1		inactive	
COCC(=O)NC1CCN(Cc2cccc(-c3ccc(F)c(F)c3)c2)CC1	inconclusive [inhibitor, partial curve, poor fit]		
Cn1cccc1C(=O)N1CCCC(n2cc(-c3nc(-c4ccccc4)no3)nn2)C1 (stereo not given)			inactive: 3.75%
CC(=O)N1CCc2c(c3ccccc3n2C)C1	inconclusive [inhibitor, single point]		
CCC(=O)N1CCC(N2CC(OC)C23CCOCC3)CC1 (stereo not given)	inconclusive [inhibitor, partial curve]		
COc1cccc(CN2Cc3cc(NC(=O)c4ccc(F)cc4F)ccc3OC(C)C2=O)c1OC (stereo not given)	inconclusive [inhibitor, single point]		
O=C1Nc2ccc(-c3ccco3)cc2C(=O)N2CCN(C(=O)NC3CCCCC3)C[C@H]12	inconclusive [inhibitor, single point]		
CN(C)C(CCOc1cccc2ccccc12)c1ccccc1 (stereo not given)		inactive	
COC(=O)CNC(=O)C1CCCN1c1nccc(Nc2ccccc2F)n1 (stereo not given)		inactive	
Fc1ccccc1-c1noc(-c2nc(-c3ccccc3F)no2)n1	inconclusive [inhibitor, single point]		
CC(C)N1CCn2nc(C(=O)NCCc3ccc(Cl)cc3)cc2C1	inconclusive [inhibitor, single point]		
Fc1ccc(N2CCN(CCC3OCCc4ccccc43)CC2)cc1 (stereo not given)	inconclusive [inhibitor, full curve]		
CN1c2c(nc(N)[nH]c2=O)NC[C@@H]1CNc1ccc(C(=O)N[C@@H](CCC(=O)O)C(=O)O)cc1	inconclusive [inhibitor, single point]		
C=CCC1(C(=O)O)CCCN(Cc2cc(Cl)ccc2OCC(=O)O)C1 (stereo not given)	inconclusive [inhibitor, full curve, poor fit]		
COc1cc2c(CCNC(C)=O)c[nH]c2cc1O	inconclusive [inhibitor, full curve, poor fit]		
COCCNC(=O)c1ccc(OC2CCN(CCC(C)c3ccc(C)o3)CC2)c(Cl)c1 (stereo not given)	inconclusive [inhibitor, single point]		
C[C@@H]1CC[C@]2(C)C(C[C@@H](O)[C@H](O)[C@]23CO3)[C@@]1(C)CCc1ccoc1 (stereo not given in full)	inconclusive [inhibitor, single point]		
Cc1ccc(-c2nnc(C3CN(C(=O)c4cc(C)nn4C)CC34CCOCC4)o2)cc1 (stereo not given)	inconclusive [inhibitor, single point]		
CC(=O)N1CCC(C(=O)N(C)C2CCc3nn(C)c(=O)n3CC2)CC1 (stereo not given)	inconclusive [inhibitor, single point]		

Compound	Potency	outcome	activity change, negative = inhibition
Nc1cc(C(F)(F)F)ccc1S	active: 28.2 µM		
COc1ccc(Cn2c3c(c(=O)n2Cc2ccccc2)CCN(C(=O)c2cocn2)C3)cc1			inactive: -18.9%
CC(C)C1(O)C=C2C(=O)CC3C(C)(C(=O)O)CCCC3(C)C2CC1 (stereo not given)	inconclusive [inhibitor, single point]		
Cc1noc(C)c1-c1cc2c(cc(C)n2C)c(Nc2ccncn2)n1	inconclusive [inhibitor, single point]		
O=C1CC(c2ccccc2)N(S(=O)(=O)c2ccccc2)CCCCCCN1 (stereo not given)	inconclusive [inhibitor, single point]		
COC(=O)c1c(Cl)c(Cl)c(C(=O)OC)c(Cl)c1Cl	inconclusive [inhibitor, partial curve, poor fit]		
COc1ccc(-c2nc(C3CC3)nc3c2CN([S+](=O)([O-])c2ccccc2)CC3)cc1			inactive: 2.77%
Cn1cc(-c2cnc3[nH]cc(CC(=O)Nc4ccc(C(F)(F)F)cc4)c3c2)cn1			inactive: -8.45% [at 88.5 µM]
COc1ccc(C(=O)N2CCC(N3CC4CC(C3)[C@H]3CCCC(=O)N3C4)CC2)cc1 (stereo not given in full)		inactive	
C=CCN1CCC2(CCC1=O)CN(c1ccc(C#N)cn1)CCN2C (stereo not given)	inconclusive [inhibitor, single point]		
c1ccc(-c2ccc3ncc(Nc4cccnc4)n3n2)cc1	inconclusive [inhibitor, single point]		
O=C(NCC1CC1)C1CCN(Cc2ccccc2-c2ccccc2F)CC1			inactive: 4.52%
COc1ccc(NC(=O)O[C@@H]2C=C[C@H](c3c(C)nn(-c4ccccc4C)c3C)C2)cc1	inconclusive [inhibitor, single point]		
Cc1oc2c(c1C(=O)NC1CCOC3(CCOCC3)C1)C(=O)CCC2 (stereo not given)	inconclusive [inhibitor, partial curve, poor fit]		
Cc1noc([C@@H]2CN(C(=O)Cc3cccc4ccccc34)C[C@H]2CO)n1	inconclusive [inhibitor, single point]		
Cc1cnc(CCNC(=O)c2ccnn2C)n1CC1CC1	inconclusive [inhibitor, single point]		
COc1ccc(CN2Cc3[nH]cnc3C[C@H]2c2nc(-c3ccc4ccccc4c3)no2)cc1	inconclusive [inhibitor, single point]		
CN1CCN([C@H]2CCN(Cc3ccc(C#CCO)cc3)C[C@H]2CCC(=O)O)CC1	inconclusive [inhibitor, single point]		
COc1ccc(CN2CCOC[C@H](Oc3cccc(C)n3)C2)cc1			inactive: 0.418% [at 88.5 µM]
COCCCNC(=O)c1ccc2nnc(-c3ccoc3)n2c1		inactive [at 88.5 µM]	
COc1ccc(-c2cc(N3CCC(NC(=O)c4ccc5nc[nH]c5c4)CC3)n[nH]2)cc1		inactive	
